Screen size: about 390,000 compounds; about 4,000 (1%) were called active. Inconclusive results, whose numbers are uncertain, are shown with a selection of clear calls. Calls follow the shape of the dose curve; as a rule, active = well fitted inhibition curve with a large enough effect; inconclusive = small, poorly fitted or top-dose-only effect; inactive = no such curve, though single readings can be large or run the other way. A potency beside an inconclusive call is a rough fit, not a confirmed value.
What follows are molecules tested against Thioredoxin reductase 1, cytoplasmic (Rattus norvegicus) (UniProt O89049) (assay: qHTS Assay for Inhibitors of Mammalian Selenoprotein Thioredoxin Reductase 1 (TrxR1): qHTS). Settings: recombinant rTrxR1, NADPH fluorescence consumption, selenite substrate; series mostly up to 114 µM; activity change, negative = inhibition: at the top concentration.
Sequence of UniProt O89049 (O89049 whole entry, looked up): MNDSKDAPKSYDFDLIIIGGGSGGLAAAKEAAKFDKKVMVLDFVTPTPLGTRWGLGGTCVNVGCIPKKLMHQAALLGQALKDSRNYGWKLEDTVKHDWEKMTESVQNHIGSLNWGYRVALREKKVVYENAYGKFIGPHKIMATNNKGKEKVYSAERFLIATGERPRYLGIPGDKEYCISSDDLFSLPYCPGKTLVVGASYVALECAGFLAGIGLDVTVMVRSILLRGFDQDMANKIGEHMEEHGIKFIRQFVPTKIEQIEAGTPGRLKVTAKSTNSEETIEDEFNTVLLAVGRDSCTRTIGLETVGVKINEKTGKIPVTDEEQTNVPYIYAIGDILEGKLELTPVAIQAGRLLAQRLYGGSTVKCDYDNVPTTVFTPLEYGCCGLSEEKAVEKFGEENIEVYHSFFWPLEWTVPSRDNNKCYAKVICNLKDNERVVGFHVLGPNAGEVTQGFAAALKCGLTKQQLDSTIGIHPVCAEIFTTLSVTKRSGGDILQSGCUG
Procedure, shortened: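 Rat TrxR1 (90 nM in the dispensed reagent) was pre-reduced with 400 uM NADPH for 5 min at room temperature, then incubated with compound for 15 min. After 400 uM selenite was added, NADPH fluorescence (Ex 340/Em 450 nm) was followed for 8 min.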
% is scaled to controls: 0 for no effect and ±100 for the full control effect; potency is read from the fitted curve at half-maximal effect; tags tell the direction and shape of the fitted curve.
Also: nearly all actives have a fitted effect of over 65% in size.

| Compound | Potency | activity change, negative = inhibition |
| --- | --- | --- |
| COCCN(CCOC)Cc1c(O)ccc2c1O/C(=C\c1ccc(C)o1)C2=O | active: 50.1 µM | – |
| CCOC(=O)c1c(C)oc2nc(C)nc(NCCc3ccc(OCC)cc3)c12 | – | inactive: 18.2% |
| CC(C)(C)c1cc(C(c2cccnc2)N2CCN(CCO)CC2)cc(C(C)(C)C)c1O (centres undefined) | inconclusive: 0.316 µM [inhibitor, full curve] | – |
| CCC(C)NC(=O)Cn1c(=O)n(-c2cc(OC)cc(OC)c2)c(=O)c2ccccc21 (centres undefined) | – | inactive: 13.7% |
| CCOC(=O)C1=C(C)Nc2nc3ccccc3n2C1c1cccs1 (centres undefined) | inconclusive: 20 µM [inhibitor, single point] | – |
| COc1ccc(NC(=O)CSc2nncn3c2cc2occc23)c(OC)c1 | inconclusive: 39.8 µM [inhibitor, single point] | – |
| COc1ccc(N2C(=O)CS/C2=C\[N+](=O)[O-])cc1 | – | inactive: -32.5% |
| CCC(C)(C)n1nnnc1C(c1cc2cccc(C)c2[nH]c1=O)N1CCCC1 (centres undefined) | inconclusive: 14.1 µM [inhibitor, single point] | – |
| Cc1nc(NC(=O)/C=C/c2ccco2)sc1C | inconclusive: 39.8 µM [inhibitor, single point] | – |
| COC(=O)C(NNc1ccccc1C)(NC(=O)c1ccc(F)cc1)C(F)(F)F (centres undefined) | active: 28.2 µM | – |
| COc1cc(N=c2ssnc2Cl)c(OC)cc1Cl | inconclusive: 22.4 µM [inhibitor, full curve] | – |
| COc1ccccc1-c1cc(C(F)(F)F)nc(S(=O)(=O)CCCC(=O)Nc2ccc(F)cc2F)n1 | inconclusive: 14.1 µM [inhibitor, partial curve] | – |
| O=C(CNC(=O)c1ccccc1F)N/N=C/c1cc(Br)ccc1OC(=O)/C=C/c1ccco1 | inconclusive: 79.4 µM [inhibitor, partial curve, poor fit] | – |
| COc1ccc(NCC(=O)N/N=C/C=C\c2ccccc2)cc1 | – | inactive: -20.5% |
| NS(=O)(=O)c1ccc(NC(=S)Nc2ccn(Cc3cccc4ccccc34)n2)cc1 | active: 12.6 µM | – |
| COc1ccc(-c2cc(-c3n[nH]c(=S)n3-c3cc(OC)ccc3OC)[nH]n2)cc1 | inconclusive: 44.7 µM [inhibitor, partial curve, poor fit] | – |
| COc1ccc(-c2csc(NC3OC(=O)c4c3ccc(OC)c4OC)n2)cc1OC (centres undefined) | inconclusive: 14.1 µM [inhibitor, partial curve] | – |
| O=C1C2C3C=CC(C3=C(c3ccccc3)c3ccccc3)C2C(=O)N1Cc1ccccc1 (centres undefined) | inconclusive: 31.6 µM [inhibitor, full curve, poor fit] | – |
| Cc1cccc(C)c1NC(=O)COC(=O)c1ccccc1Nc1ccccc1 | inconclusive: 39.8 µM [inhibitor, single point] | – |
| O=C(CSc1nc2ccccc2[nH]1)Nc1nc(-c2ccccc2)c(-c2ccccc2)o1 | inconclusive: 50.1 µM [inhibitor, partial curve, poor fit] | – |
| Cc1ccc(-c2nc(CS(=O)(=O)CC(=O)NC3CCCCC3C)c(C)o2)cc1 (centres undefined) | inconclusive: 89.1 µM [inhibitor, single point] | – |
| CC(=O)Nc1nnc(S(=O)(=O)N2CCN(c3ccc([N+](=O)[O-])cc3Cl)CC2)s1 | inconclusive: 12.6 µM [inhibitor, partial curve] | – |

| Compound | Potency | activity change, negative = inhibition |
| --- | --- | --- |
| CN(C)CCNCCCNc1c2ccccc2nc2cccc([N+](=O)[O-])c12 | inconclusive: 89.1 µM [inhibitor, partial curve, poor fit] | – |
| O=S(=O)(NCCCNS(=O)(=O)c1c(F)cccc1F)c1ccc2c(c1)OCCO2 | – | inactive: 11.6% |
| CN(C)c1ccc(S(=O)(=O)N2CCCCC2)cc1NC(=O)CCNC(=O)c1ccco1 | inconclusive: 56.2 µM [inhibitor, partial curve, poor fit] | – |
| C=CCn1c(Sc2ncc([N+](=O)[O-])s2)n[nH]c1=O | active: 0.316 µM | – |
| COc1ccc([N+](=O)[O-])c(S(=O)(=O)c2ccccc2)n1 | inconclusive: 0.316 µM [inhibitor, full curve, poor fit] | – |
| Cc1cccc(NC(=O)c2oc3ccc(S(=O)(=O)N4CCC5(CC4)OCCO5)cc3c2C)c1C | – | inactive: 3.14% [at 57.1 µM] |
| CCC1CCCCN1C(=O)c1ccc(OC2CCN(Cc3ccccn3)CC2)cc1 (centres undefined) | inconclusive: 79.4 µM [inhibitor, single point] | – |
| CC12CCC(=O)C=C1CCC1C2CCC2(C)C1CCC2(O)C(=O)CO (centres undefined) | – | inactive: 29.3% |
| O=C(NC1CCCCC1)C1c2ccccc2C(=O)N1Cc1ccco1 (centres undefined) | inconclusive: 12.6 µM [inhibitor, partial curve, poor fit] | – |
| Cc1ccccc1C(=O)NC(=S)Nc1ccc(S(=O)(=O)N2CCN(C)CC2)cc1 | inconclusive: 35.5 µM [inhibitor, single point] | – |
| N#Cc1c(N2CCSCC2)nsc1-c1ccccc1Cl | – | inactive: 2.77% |
| CCOc1ccccc1C1C(C#N)=C(N)Oc2cc(C)n(C)c(=O)c21 (centres undefined) | inconclusive: 12.6 µM [inhibitor, partial curve, poor fit] | – |
| CC(C)(C)NC(=O)CSc1nnc(-c2ccco2)n1Cc1ccco1 | inconclusive: 31.6 µM [inhibitor, partial curve, poor fit] | – |
| CCOc1ccc(C(c2c(O)cc(C)n(Cc3ccco3)c2=O)N2CCN(c3ccccc3)CC2)cc1 (centres undefined) | inconclusive: 22.4 µM [inhibitor, single point] | – |
| Cc1cccc(C)c1NC(=S)NC(=O)CCc1ccccc1 | active: 3.55 µM | – |
| Cc1ccc(C2C=C(c3ccc(Cl)cc3)Nc3nc(NC(=O)c4ccco4)nn32)cc1 (centres undefined) | active: 39.8 µM | – |
| COc1ccc(-c2nc(C#N)c(N3CCOCC3)o2)cc1OC | inconclusive: 100 µM [inhibitor, single point] | – |
| CCOC(=O)CS(=O)(=O)c1nc(-c2ccc(F)cc2)cc(C(F)(F)F)n1 | inconclusive: 3.98 µM [inhibitor, full curve, poor fit] | – |
| N#C/C(=C(/O)CCl)c1nc2c(s1)CCc1ccccc1-2 | inconclusive: 25.1 µM [inhibitor, single point] | – |
| Cn1c(N)c(C#N)c2c(c1=S)COC(C)(C)C2 | inconclusive: 14.1 µM [inhibitor, partial curve, poor fit] | – |
| COc1cc(/C=C/[N+](=O)[O-])ccc1OCc1cccc(C(=O)O)c1 | active: 31.6 µM | – |
| Cc1ccc(C)c(N2CCN(S(=O)(=O)c3ccc4c(c3)OCCO4)CC2)c1 | – | inactive: -1.25% |

| Compound | Potency | activity change, negative = inhibition |
| --- | --- | --- |
| Cc1ccc(CN2CCN(Cc3nc4ccccc4nc3C)CC2CCO)cc1 (centres undefined) | inconclusive: 89.1 µM [inhibitor, single point] | – |
| O=C(COc1ccccc1C(=O)Nc1ccccc1)Nc1cccc([N+](=O)[O-])c1 | – | inactive: 4.6% |
| Cc1cc(C)cc(N2C(=O)CCSC23C(=O)N(Cc2ccccc2)c2ccccc23)c1 (centres undefined) | – | inactive: 11.9% |
| C#CCOCCOCCOCCNc1nc(N2CCN(C(=O)C([C@@H](C)CC)n3cc(C(N)COC(=O)C(F)(F)F)nn3)CC2)nc(N2CCN(C(=O)[C@H](CCCCN)n3cc(C(N)CC(C)C)nn3)CC2)n1 (some centres undefined) | inconclusive: 10 µM [inhibitor, partial curve, poor fit] | – |
| COc1cc(/C=C2/C(=N)N3C(=NC2=O)SN=C3S(C)(=O)=O)ccc1OC(=O)c1ccco1 | inconclusive: 39.8 µM [inhibitor, partial curve] | – |
| CC(C)(C)OC(=O)N/N=C/c1cccn1-c1ccc([N+](=O)[O-])cc1 | – | inactive: 13.8% [at 11.4 µM] |
| COc1ccccc1N1CCN(C(=O)c2ccc(Br)o2)CC1 | inconclusive: 56.2 µM [inhibitor, partial curve, poor fit] | – |
| O=C(CNC(=O)c1ccco1)N=Nc1c(O)[nH]c2ccc(Br)cc12 | inconclusive: 89.1 µM [inhibitor, single point] | – |
| CCC(=O)OC1(C)C(=O)C2=COC(c3ccc(OC)cc3)=CC2=C(Br)C1=O (centres undefined) | inconclusive: 22.4 µM [inhibitor, partial curve] | – |
| Cn1c(=O)c2c(SCC(=O)Nc3ccc(F)cc3F)nc(C3CCCC3)nc2n(C)c1=O | – | inactive: 24.7% [at 57.1 µM] |
| S=c1[nH]c2ccccc2n2c(=S)[nH]nc12 | inconclusive: 2 µM [inhibitor, full curve] | – |
| CC1=NNC(=O)C1C(c1ccc(Cl)cc1)C(C#N)C#N (centres undefined) | inconclusive: 17.8 µM [inhibitor, single point] | – |
| CCc1ccc(CN(C)C(=O)C2CCC(=O)N(CCc3ccc(OC)cc3)C2)nc1 (centres undefined) | inconclusive: 89.1 µM [inhibitor, single point] | – |
| CCn1c(=O)c2cc(C(=O)NC(C)C)sc2c2ccccc21 | inconclusive: 70.8 µM [inhibitor, partial curve, poor fit] | – |
| O=C1[C@@H](c2ccccc2)[C@@H](c2ccccc2)N1c1cccnc1 | inconclusive: 31.6 µM [inhibitor, partial curve, poor fit] | – |
| Cc1ccc(C)c(-n2c3nc(=O)[nH]c(=O)c-3cc3cc([N+](=O)[O-])ccc32)c1 | inconclusive: 17.8 µM [inhibitor, full curve] | – |
| COc1ccc(C(=O)c2ccc([N+](=O)[O-])cc2Cl)cc1 | inconclusive: 17.8 µM [inhibitor, partial curve, poor fit] | – |
| CC(=O)N1CCN(c2nc(-c3ccco3)c3c(c2C#N)CC(C)(C)SC3)CC1 | inconclusive: 25.1 µM [inhibitor, single point] | – |
| Cc1ccc2oc(=O)n(Cc3ccccc3)c2c1 | – | inactive: 16.8% |
| COCCNC(=O)/C(C#N)=C/c1cccc(/C=C(\C#N)C(=O)NCCOC)c1 | inconclusive: 35.5 µM [inhibitor, partial curve, poor fit] | – |
